# Assay results published in paper PMC4336329 (PLoS ONE, 2015).
# Hit rate of the full screen: of about 310,000 compounds, about 2,200 (0.71%) showed an effect of 50% or more. Effects have a minus sign here. This is one part of the list.
# Molecular target: human ether-à-go-go-related gene (hERG) potassium channel (human, UniProt Q12809)
# Experiment: primary screen, population patch clamp on CHO cells stably expressing hERG
# Sequence of human ether-à-go-go-related gene (hERG) potassium channel (Q12809 whole entry, looked up): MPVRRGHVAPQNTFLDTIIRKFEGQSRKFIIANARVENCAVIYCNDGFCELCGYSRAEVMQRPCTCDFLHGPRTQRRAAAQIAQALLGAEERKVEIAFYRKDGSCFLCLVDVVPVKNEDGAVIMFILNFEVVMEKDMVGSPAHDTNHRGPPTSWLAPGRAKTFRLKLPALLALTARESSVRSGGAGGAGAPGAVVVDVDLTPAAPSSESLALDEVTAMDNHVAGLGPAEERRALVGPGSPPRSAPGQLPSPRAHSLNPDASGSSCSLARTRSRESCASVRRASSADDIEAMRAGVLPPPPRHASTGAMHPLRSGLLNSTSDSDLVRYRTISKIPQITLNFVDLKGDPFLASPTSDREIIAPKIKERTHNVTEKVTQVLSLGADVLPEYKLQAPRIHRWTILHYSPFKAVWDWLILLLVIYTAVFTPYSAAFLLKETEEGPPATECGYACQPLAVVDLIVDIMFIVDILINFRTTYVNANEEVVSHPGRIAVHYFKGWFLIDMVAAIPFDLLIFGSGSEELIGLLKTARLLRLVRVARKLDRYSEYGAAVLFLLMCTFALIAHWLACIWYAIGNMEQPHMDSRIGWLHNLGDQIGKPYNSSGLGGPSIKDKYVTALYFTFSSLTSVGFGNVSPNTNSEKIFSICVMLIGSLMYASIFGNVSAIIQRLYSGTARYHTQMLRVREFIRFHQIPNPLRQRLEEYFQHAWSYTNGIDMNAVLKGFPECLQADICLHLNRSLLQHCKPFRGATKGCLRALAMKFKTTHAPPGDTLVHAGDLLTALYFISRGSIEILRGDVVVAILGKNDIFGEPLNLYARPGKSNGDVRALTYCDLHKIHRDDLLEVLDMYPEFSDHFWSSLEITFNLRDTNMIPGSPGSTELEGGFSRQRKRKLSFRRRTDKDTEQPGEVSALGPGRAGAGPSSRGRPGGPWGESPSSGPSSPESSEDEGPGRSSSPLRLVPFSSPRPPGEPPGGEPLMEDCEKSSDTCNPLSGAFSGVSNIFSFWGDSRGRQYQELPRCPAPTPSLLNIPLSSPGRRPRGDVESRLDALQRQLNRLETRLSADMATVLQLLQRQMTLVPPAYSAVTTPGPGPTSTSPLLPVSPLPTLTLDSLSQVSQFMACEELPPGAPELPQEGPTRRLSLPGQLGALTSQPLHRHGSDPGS
row,SMILES,"hERG current change (%, negative = inhibition) at 1uM"
1,COc1ccc(/C=N/NC(=O)CNC(=O)C2COc3ccccc3O2)cc1OC (stereo not shown),-2.79%
2,CN1C2CCC1CC(OC(=O)c1cc(Cl)cc(Cl)c1)C2.Cl (stereo not shown),-26.4%
3,COc1ccc(C2CC(=O)c3cc(OC)c(OC)cc32)cc1OC (stereo not shown),17.2%
4,O=C1Nc2ccc(S(=O)(=O)N3CCCC3)c3cccc1c23,3.9%
5,N#C/C(=C\c1ccc(O)c(O)c1)C(=O)Nc1ccccc1,11.8%
6,CSc1nnnn1-c1cccc(O)c1,6.49%
7,CC1=C(C(=O)OC2CCCCC2)C(c2ccc(C)o2)C2=C(CCCC2=O)N1 (stereo not shown),0.605%
8,CCSc1ncnc2c1oc1ccccc12,18.7%
9,CCNc1nc(Oc2ccc(F)cc2)cc(C(F)(F)F)n1,9.09%
10,O=C(c1ccsc1)N1CCN(C(=O)c2cccs2)CC1,-11.7%
11,Cc1ccc(-n2cc3c(-c4cccc(Br)c4)nnc(C)c3n2)cc1,13.3%
12,CCn1cc(C(=O)N2CCc3ccccc3C2)c(=O)c2cc(S(=O)(=O)N3CCCCC3)ccc21,-19.3%
13,Cc1ccc(NC(=O)CCN2C(=O)CSC2=O)c(C)c1,24.9%
14,CCOC(=O)N1CCN(S(=O)(=O)c2ccc(Br)cc2)CC1,9.69%
15,CCOC(=O)C1CCCN(C(=O)COC(=O)C2=COCCO2)C1 (stereo not shown),14.6%
16,O=C(c1ccccc1)c1ccccc1N/C=C/c1nnnn1-c1ccccc1,10.9%
17,COc1ccccc1/C=C/C=N/n1c(-c2ccncc2)n[nH]c1=S,18.8%
18,CC(Oc1cc2oc(=O)c3c(c2cc1Cl)CCCC3)C(=O)NCc1ccncc1 (stereo not shown),12.4%
19,CC(C)c1ccc(NC(=O)Nc2cc3sccc3n2C)cc1,12.5%
20,CC(=O)c1c(C)[nH]c(C(=O)OCC(=O)Nc2ccc([N+](=O)[O-])cc2Cl)c1C,4.5%
21,O=C(O)c1nonc1-c1nonc1C(=O)O,-7.52%
22,CC(C)(C)c1ccc(O)c(N=Cc2cc3c(cc2[N+](=O)[O-])OCO3)c1,11.2%
23,CCOC(=O)c1cnc2cc(C)ccn2c1=O,3.12%

row,SMILES,"hERG current change (%, negative = inhibition) at 1uM"
1,CCOc1ccccc1C1C2C(=O)N(c3ccccc3)C(=O)C2ON1c1ccccc1 (stereo not shown),-5.21%
2,C/C(=N\Nc1nc(C)cc(-c2ccccc2)n1)c1ccc(C)o1,6.24%
3,C#CCNC(=O)C1=C[C@H](C2CCCCC2)C[C@H](OCc2ccc(CO)cc2)O1,2.5%
4,O=C(COC(=O)c1cccs1)Nc1cccc(S(=O)(=O)NC2=NCCCCC2)c1,3.35%
5,Nc1cc(-c2ccc(Br)cc2)nn1S(=O)(=O)c1cccc2nsnc12,10.2%
6,COc1ccc(C(C#N)Nc2ccccc2OC)cc1 (stereo not shown),4.52%
7,O=C(Nc1nnc(/N=C/c2ccco2)s1)c1ccc(F)cc1,11.3%
8,CCCCCCCNC1=CC(=O)CC(c2ccccc2)C1 (stereo not shown),-63.2%
9,C=CCn1c(N)cc(=O)nc1SCC(=O)Nc1ccc(C)cc1,10.3%
10,CCN(c1cc(C)cc(C)c1)S(=O)(=O)c1nnc(NC(=O)C(C)(C)C)s1,14.2%
11,CN1C(=O)N(C)C(=O)C2(Cc3cc(N)ccc3N3CCN(c4ccccc4F)CC32)C1=O (stereo not shown),3.47%
12,COc1ccc(S(=O)(=O)N2CCCCC2)cc1NC(=O)c1cnc(C)cn1,8.47%
13,COc1ccc(C2C(=O)N(CCc3ccccc3)CC(=O)N2C2CCCCC2)cc1 (stereo not shown),-8.51%
14,COC12C(COC(N)=O)C3=C(C(=O)C(C)=C(N)C3=O)N1CC1C2N1C (stereo not shown),4.25%
15,Cc1ccc(N2CCN(S(=O)(=O)N3CCOCC3)CC2)cc1C,11.1%
16,COCCNC(=S)N/N=C(\C)c1ccc(Cl)s1,8.63%
17,C/C(N)=C(/C#N)C(=O)CSc1nnc(-c2ccc(OC(F)F)cc2)o1,0.514%
18,C[C@H]1CCC[C@]2(O[C@@H](CCO)C[C@H](O)[C@H]2O)O1,14.8%
19,COc1ccccc1N1C(=O)CSC1=S,10%
20,CCOC(=O)C1=c2s/c(=C\c3ccncc3)c(=O)n2C(N)=C(C(=O)OC)C1c1ccncc1 (stereo not shown),5.64%
21,COC(=O)c1cccc(NC(=O)c2ccc(S(=O)(=O)N3CCN(C)CC3)cc2)c1,16.5%
22,CCOc1ccc(/C=N/n2cc(-c3ccccc3)[nH]c2=S)cc1,14.8%
23,COc1ccc(C(=O)Nc2sc(C)c(C)c2CN2CC(C)OC(C)C2)cc1 (stereo not shown),16.5%
